{
  "source": "PubChem BioAssay AID686978",
  "about": "(National Center for Advancing Translational Sciences (NCATS), 2013)",
  "note": "Screen size: about 420,000 compounds; about 64,000 (15%) were called active. Inconclusive results, whose numbers are uncertain, are shown with a selection of clear calls. Calls follow the shape of the dose curve; as a rule, active = well fitted inhibition curve with a large enough effect; inconclusive = small, poorly fitted or top-dose-only effect; inactive = flat fitted curve, though single readings scatter. No potency is given beside an inconclusive call; the fits are too rough. % is scaled to controls: 0 for no effect and ±100 for the full control effect; potency is read from the fitted curve at half-maximal effect; tags tell the direction and shape of the fitted curve.",
  "data": [
    {"experiment": "qHTS for Inhibitors of human tyrosyl-DNA phosphodiesterase 1 (TDP1): qHTS in cells in absence of CPT; also: nearly all actives have a fitted effect of over 55% in size", "conditions": "DT40 Tdp1-/- hTDP1 cells, no CPT, ATP luminescence, 48 h; activity change, negative = growth inhibition: at 46.2 µM (top of the series) unless noted", "how_it_was_run": "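Chicken DT40 Tdp1-/- cells stably complemented with human TDP1 were seeded at 400 cells/well with DMSO in place of 20 nM camptothecin. After compound pinning, cells grew at least 48 hr at 37 °C; viability read by CellTiter-Glo luminescence.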", "values": [
      {"smiles": "Cc1cc(C)cc(C(=O)N(CCc2ccccc2)C2CC3CCC(C2)N3C)c1", "note": "(configuration not stated)", "Potency": "inconclusive [inhibitor, single point]"},
      {"smiles": "C/C(=N\\OC(=O)c1ccc(Cl)cc1)c1sc(-c2ccccc2)nc1C", "Potency": "inconclusive [inhibitor, single point]"},
      {"smiles": "CCOC(=O)C1CCCN(CCC(=O)Nc2ccc3c(c2)CCC3)C1", "note": "(configuration not stated)", "activity change, negative = growth inhibition": "inconclusive: -32.9% [inhibitor]"},
      {"smiles": "COc1ccc(C2=NN(C(=O)c3ccccc3)C(c3cccc([N+](=O)[O-])c3)C2)cc1", "note": "(configuration not stated)", "Potency": "inconclusive [inhibitor, single point]"},
      {"smiles": "Cc1ccc(Nc2sc(C(=O)c3ccccc3)c(N)c2C(=O)NC(C)C)cc1", "Potency": "inconclusive [inhibitor, partial curve]"},
      {"smiles": "CSc1ccc(S(=O)(=O)NC2CCCCC2)cc1", "Potency": "inactive"},
      {"smiles": "CCOC(=O)C1=C(N)OC(CCl)=C(C#N)C1c1ccsc1", "note": "(configuration not stated)", "Potency": "active: 2.59 µM"},
      {"smiles": "COc1ccc(N=Cc2c(O)n(-c3cccc(C)n3)c(=O)c3ccccc23)c(OC)c1", "Potency": "inactive"},
      {"smiles": "O=C(Cc1cccc2ccccc12)N/N=C/c1ccc(F)cc1", "Potency": "inconclusive [inhibitor, partial curve]"},
      {"smiles": "Cc1cccc(Cn2cc(C(=O)c3ccccc3)c(=O)c3cc4c(cc32)OCO4)c1", "Potency": "inconclusive [inhibitor, single point]"},
      {"smiles": "Cc1ccccc1/C=C1\\OC(=O)c2ccccc21", "Potency": "inconclusive [inhibitor, single point]"},
      {"smiles": "O=C(Nc1ccccc1)c1ccc(NC2CCCCC2)c(S(=O)(=O)N2CCOCC2)c1", "Potency": "inconclusive [inhibitor, single point]"},
      {"smiles": "CCc1nonc1NC(=O)c1oc2cc(C)c(Cl)cc2c1C", "Potency": "active: 9.2 µM"},
      {"smiles": "O=C(O)C1C(=O)NCC1c1ccccc1", "note": "(configuration not stated)", "Potency": "inactive"},
      {"smiles": "COc1ccc(NC(=O)c2ccccc2NC(=O)C2CCCO2)cc1", "note": "(configuration not stated)", "activity change, negative = growth inhibition": "inconclusive: -30.8% [inhibitor]"},
      {"smiles": "COC(=O)c1cn(N(C)c2ncc(C(F)(F)F)cc2Cl)c(=O)c2ccccc12", "Potency": "inconclusive [inhibitor, single point]"},
      {"smiles": "COc1ccccc1CNC(=O)C1CC2Cn3c(nc4ccccc43)C2N1C", "note": "(configuration not stated)", "Potency": "inconclusive [inhibitor, single point]"},
      {"smiles": "CCN(CC)CCOC(=O)c1ccc(NC(=O)COc2cc(=O)n(CC)c3ccccc23)cc1", "activity change, negative = growth inhibition": "inconclusive: -34% [inhibitor]"},
      {"smiles": "O=C(COC(=O)Cc1ccccc1F)NCCNC(=O)COC(=O)Cc1ccccc1F", "Potency": "inactive"},
      {"smiles": "CNc1nc(-c2c(C)[nH]c3ccc(OC)cc23)cs1", "activity change, negative = growth inhibition": "inconclusive: -31.1% [inhibitor]"},
      {"smiles": "COc1cccc(CNC(=O)c2cc(-c3cccc(OC)c3)n[nH]2)c1", "Potency": "inconclusive [inhibitor, single point]"},
      {"smiles": "C=CCNC(=S)NNC(=O)c1ccc(OCC)cc1", "Potency": "active: 20.6 µM"},
      {"smiles": "O=C(O)C1C2C=CC(O2)C1C(=O)NCCc1cccc(Cl)c1", "note": "(configuration not stated)", "Potency": "inactive"},
      {"smiles": "COC(=O)c1cc(OC)c(OC)cc1NC(=O)C(C)c1ccc([N+](=O)[O-])cc1", "note": "(configuration not stated)", "activity change, negative = growth inhibition": "inconclusive: -37.2% [inhibitor]"},
      {"smiles": "Cc1ccc(Oc2nc3ccccn3c(=O)c2/C=C(\\C#N)C(=O)NC2CCS(=O)(=O)C2)c(C)c1", "note": "(configuration not stated)", "Potency": "inconclusive [inhibitor, partial curve]"},
      {"smiles": "Cc1nc(N)c(C#N)c(-c2ccccc2)c1C", "Potency": "inconclusive [inhibitor, single point]"},
      {"smiles": "CCOC(=O)COc1c(OC)cc(Cl)cc1C1NC(=O)NC(C)=C1C(C)=O", "note": "(configuration not stated)", "Potency": "inactive"},
      {"smiles": "CCOC(=O)Nc1ccc2c(c1)N(C(=O)OC)c1ccccc1CC2", "Potency": "inconclusive [inhibitor, single point]"},
      {"smiles": "COCCN(C(=S)Nc1ccc(OC)c(Cl)c1)C1CCN(C(C)=O)CC1", "Potency": "inactive"},
      {"smiles": "S=C(NCc1ccc(Cl)cc1)NCc1ccco1", "Potency": "inactive"},
      {"smiles": "COc1ccc(NC(=O)c2ccccc2OCC(=O)Nc2ccc(Br)cc2)cc1", "Potency": "inconclusive [inhibitor, single point]"},
      {"smiles": "COc1ccccc1CN1CC[C@@]2(CCCN(C(=O)c3cccn3C)C2)C1", "activity change, negative = growth inhibition": "inconclusive: -30.8% [inhibitor]"},
      {"smiles": "O=C(c1ccc(CN2CCc3ccccc3C2)cc1)N1CCN(c2ccccc2)CC1", "Potency": "inconclusive [inhibitor, single point]"},
      {"smiles": "Cc1ccccc1Nc1nc(Cl)c(C=O)s1", "Potency": "inactive"},
      {"smiles": "O=C(CCCOC(=O)c1ccc(O)cc1O)c1ccc(F)cc1", "Potency": "inconclusive [inhibitor, single point]"},
      {"smiles": "COC(=O)Cc1c(C)c2ccc(OC3CCCCC3=O)c(C)c2oc1=O", "note": "(configuration not stated)", "Potency": "active: 18.4 µM"},
      {"smiles": "Cc1ccc(N2CCN(C(=O)CCc3c(C)nc4c(c3C)c(=O)n(C)c(=O)n4C)CC2)c(C)c1", "Potency": "inactive"},
      {"smiles": "COc1ccccc1CNC(=O)c1ccc2ccccc2n1", "Potency": "inconclusive [inhibitor, single point]"},
      {"smiles": "O=C(CCn1cnc2ccccc2c1=O)NCc1ccccc1", "Potency": "inactive"},
      {"smiles": "CCN(CCCNC(=O)C1CCC(=O)N1Cc1ccc(F)cc1)c1cccc(C)c1", "note": "(configuration not stated)", "Potency": "inconclusive [inhibitor, single point]"},
      {"smiles": "CCCCC(=O)Nc1ccc(NC(=O)c2ccccc2OC)cn1", "activity change, negative = growth inhibition": "inconclusive: -32.8% [inhibitor]"},
      {"smiles": "Cc1ccc(CNC(=O)c2csc3c2CCCCC3)cc1", "Potency": "inconclusive [inhibitor, partial curve, poor fit]"},
      {"smiles": "COc1cc(C(=O)Nc2cc(S(C)(=O)=O)ccc2Cl)ccc1OCC(=O)N1CCOCC1", "Potency": "inactive"},
      {"smiles": "O=C(O)c1cccc(Nc2ccc([N+](=O)[O-])cn2)c1", "Potency": "inactive"},
      {"smiles": "COc1cc([N+](=O)[O-])cc(/C=N/NC(=O)C(C)Nc2cccc(C)c2)c1O", "note": "(configuration not stated)", "Potency": "inconclusive [inhibitor, partial curve, poor fit]"},
      {"smiles": "S=C(Nc1cccc(Br)c1)N1CCn2cccc2C1c1cccnc1", "note": "(configuration not stated)", "Potency": "inconclusive [inhibitor, single point]"},
      {"smiles": "Cc1ccc(S(=O)(=O)n2nc(-c3ccco3)nc2SCc2ccccc2)cc1", "Potency": "inconclusive [inhibitor, single point]"}
    ]}
  ]
}
